# The other results are listed elsewhere or left out. The full chains were built here from the parent and the listed change. Inactive controls read about 0.05.
# B1: TEV protease; numbered along this chain (parent)
# chain: MGESLFKGPRDYNPISSSICHLTNESDGHTTSLYGIGFGPFIITNKHLFRRNNGTLVVQSLHGVFKVKDTTTLQQHLVDGRDMIIIRMPKDFPPFPQKLKFREPQREERICLVTTNFQTKSMSSMVSDTSCTFPSGDGIFWKHWIQTKDGQCGSPLVSTRDGFIVGIHSASNFTNTNNYFTSVPKNFMELLTNQEAQQWVSGWRLNADSVLWGGHKVFMVKPEEPFQPVKEATQL
# Variants of: B1
# Test: raw area under fraction-flipped curve 0-4 h after induction (AUC4h, not background-subtracted), DNA-recorder readout of cleavage of the substrate (dimensionless); higher = more cleavage of the substrate by the protease variant
# Settings: temperature: 34 °C; time window: 0-4 h after rhamnose induction
# Description: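 In vivo DNA recorder in E. coli TOP10(DE3) ΔrhaA at 34 °C. Each TEVp single-site mutant (parent TEVp 0) is paired with a single-site variant of the 7-mer TEVs (canonical ENLYFQ|S). The substrate sits between flexible linkers in a Bxb1-sfGFP-TEVs-SsrA fusion, so cleavage stabilises Bxb1 and speeds flipping of a recombination array, read by NGS. The value is the raw area under the fraction-flipped curve over 0-4 h after rhamnose induction (AUC4h), with ≥20 reads per time point. It is not background-subtracted; inactive controls average about 0.047.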
# 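Further: Bxb1 expression induced with 0.2% (w/v) L-rhamnose at OD600 near 0.5, cultures sampled hourly, flipped fraction per protease–substrate barcode pair counted by paired-end Illumina sequencing.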
Variant,area with substrate ENAYFQS,area with substrate ENEYFQS,area with substrate ENFYFQS,area with substrate ENIYFQS,area with substrate ENKYFQS,area with substrate ENPYFQS,area with substrate ENQYFQS,area with substrate ENRYFQS,area with substrate ENTYFQS,area with substrate ENYYFQS,area with substrate ENCYFQS,area with substrate ENDYFQS,area with substrate ENGYFQS,area with substrate ENHYFQS,area with substrate ENMYFQS,area with substrate ENNYFQS,area with substrate ENSYFQS,area with substrate ENVYFQS,area with substrate ENWYFQS
L61N,0.0633,0.0711,0.0735,0.112,0.0672,0.0565,0.0629,0.0628,0.094,0.0557,–,–,–,–,–,–,–,–,–
L61A,0.0471,0.0658,–,–,0.0577,–,0.0613,0.0637,0.0558,–,0.0626,0.0601,0.057,0.0476,0.0966,0.0618,0.0533,–,–
L33V,0.0339,0.0588,–,0.102,–,0.0579,–,0.0486,–,0.0573,0.0577,0.0674,0.0615,–,–,0.0575,0.0629,0.0516,0.0877
L33Q,0.0517,0.0821,0.0698,0.0858,0.062,0.0363,0.0649,–,0.0634,–,0.0623,0.0649,0.0592,0.0645,0.0581,0.0649,0.0571,0.065,–
L33F,0.0604,0.0543,0.0575,0.0749,0.068,0.0708,0.0589,0.0477,0.0578,0.0557,0.0719,0.0614,0.0605,0.0539,0.0687,0.0454,0.067,0.0662,0.0515
Y34C,0.0469,0.0581,0.0568,–,–,0.0621,0.0575,0.0548,0.0543,–,0.0616,0.0652,0.0685,0.0583,–,0.0565,0.0568,0.0611,–
F49H,0.0481,0.0661,0.0616,0.0591,0.0668,–,0.051,–,0.0665,0.0488,–,0.0731,–,0.0602,0.0568,0.051,0.0585,–,–
G63I,0.0651,0.0617,–,–,–,0.0576,0.0621,0.0916,0.0689,–,0.0564,0.0645,0.0538,–,0.0649,0.0559,0.072,0.0652,0.0517
G63M,0.0645,0.0574,0.06,0.0889,0.0631,–,0.0608,0.0579,–,–,0.0621,0.0674,0.0716,0.0395,0.0716,0.057,0.0608,0.0774,–
T55I,0.0608,0.0514,–,0.114,0.0588,0.0353,0.0593,0.0632,–,–,–,0.0656,0.0708,0.0552,0.0693,–,0.0657,0.0809,–
T55E,0.0663,0.0528,0.0621,–,0.0625,0.0508,0.0566,0.0638,0.0537,–,0.0475,0.0626,–,0.0112,0.0752,0.0525,0.0679,0.0768,0.0514
N53A,0.0611,0.0515,–,–,–,–,0.0563,0.0625,0.0609,0.0536,0.0389,0.0618,0.0528,0.0694,0.0724,0.0587,0.0743,0.072,0.0693
N53G,0.076,0.0669,0.0655,0.124,0.0846,–,0.0592,0.0585,0.0578,0.0624,0.0677,0.0583,0.0648,–,–,0.0602,0.0531,–,0.0801
G37L,0.0508,–,–,–,–,0.051,0.0427,0.0519,0.073,0.0329,0.1,–,–,0.0528,0.0758,0.0602,0.0624,0.0632,–
G37R,0.0507,–,0.0555,–,–,0.0455,0.0475,0.0492,0.0606,0.0513,0.0506,0.0566,–,0.0419,–,0.0693,0.0597,0.0488,0.0534
T44L,0.0468,0.0628,0.05,–,0.059,–,0.0581,–,0.038,0.0475,0.0596,0.0664,0.0496,0.0577,–,0.0578,0.0572,0.0539,–
I36N,0.0444,0.0592,–,0.0759,0.0401,0.0412,0.0492,0.0552,0.0484,–,0.0577,0.0569,0.0511,0.0446,–,0.0462,0.0462,0.0606,–
I36C,0.0588,–,0.0664,0.0837,–,–,0.0579,0.0695,0.0611,–,–,0.0671,0.0603,0.0651,0.0734,–,0.0567,0.0397,0.0427
H47R,0.0528,0.0676,0.0459,0.0689,0.0734,0.0628,0.0663,0.0602,0.0596,–,0.0542,0.0593,0.0396,0.0534,0.0562,0.0505,0.0819,0.0602,–
R50L,0.0718,0.0666,0.049,0.128,0.0531,–,0.0563,–,0.0754,0.0453,0.0738,0.0644,0.083,0.0614,0.065,0.0555,0.0554,0.0603,0.0464
V57T,0.0625,0.0552,–,–,0.0777,0.0488,0.0707,0.06,–,0.0599,–,0.0622,0.0857,–,–,0.0515,0.0537,0.0741,–
V57M,0.0656,0.0656,–,0.0936,0.0701,–,0.0607,0.0574,0.0646,0.0603,0.0659,0.0583,0.061,–,0.0697,–,0.0526,0.0743,–
V57K,0.0628,0.0593,–,–,0.0564,–,0.0526,0.0748,–,–,–,0.0673,0.0629,0.0516,–,0.0541,0.101,0.125,–
P40A,0.042,0.0568,–,0.131,0.0384,–,–,0.071,0.0619,–,0.0634,0.0563,0.0727,0.0566,–,0.0597,0.0632,0.0674,0.0586
R51M,0.0695,–,–,0.141,0.0533,0.077,0.0513,0.0614,0.066,0.0384,0.0686,0.0607,0.0592,0.0608,–,0.0589,0.059,0.0657,0.0598
